The full ranking holds about 33,000 sequences; the median of “E-score (-0.5 to 0.5)” is about -0.016, and the highest 2% start at about 0.32. This is one part of the list.
Target: T1, Stp1 (UniProt B3LFK1)
T1 sequence: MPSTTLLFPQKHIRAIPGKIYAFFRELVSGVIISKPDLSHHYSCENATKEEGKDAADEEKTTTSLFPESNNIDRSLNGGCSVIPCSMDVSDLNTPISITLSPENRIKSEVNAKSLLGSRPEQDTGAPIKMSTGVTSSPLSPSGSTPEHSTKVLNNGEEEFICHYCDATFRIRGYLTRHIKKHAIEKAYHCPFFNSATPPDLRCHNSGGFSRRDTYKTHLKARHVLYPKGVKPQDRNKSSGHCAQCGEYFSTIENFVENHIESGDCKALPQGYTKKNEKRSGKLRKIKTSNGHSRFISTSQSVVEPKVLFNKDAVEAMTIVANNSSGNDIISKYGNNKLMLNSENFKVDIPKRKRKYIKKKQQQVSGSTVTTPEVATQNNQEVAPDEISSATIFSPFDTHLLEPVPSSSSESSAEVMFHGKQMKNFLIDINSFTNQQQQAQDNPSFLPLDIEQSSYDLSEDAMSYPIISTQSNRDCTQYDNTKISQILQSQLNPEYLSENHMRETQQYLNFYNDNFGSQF
Experiment: PBM E-score (8-mer binding enrichment) (E-score (-0.5 to 0.5)); higher = stronger / more preferred TF binding; most listed sequences are background and not binding sites
Settings: protein concentration: 200 nM; construct: GST-full length
Method in brief: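 Using PURExpress in vitro transcription/translation, GST-tagged yeast transcription factors were made in full-length or DNA-binding-domain form. These were applied at about 100-200 nM to double-stranded universal all-10-mer Agilent arrays, and bound protein was detected with fluorescent anti-GST. Scans were normalised with masliner before the Universal PBM Analysis Suite assigned E-scores to ungapped eight-base words pooled with their reverse complements.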

Sequence | PBM E-score
TGCCCACA | -0.0178
GGCCACTA | -0.174
CAACCCAA | -0.0926
GCCCCGTA | 0.0346
ACCAGGCT | -0.326
GGTTGGAA | -0.145
TCCTACAA | 0.134
AGTCGCAG | -0.0298
AAGCACGC | 0.187
GAAAGTTA | 0.00961
AATAAACT | -0.00226
GCCCTAGA | -0.0515
CATGAGCG | -0.0374
GACCTATC | -0.0906
CGAGACAG | 0.0336
ACGTTGTC | -0.0835
ATGAGTAG | 0.148
CGGTGTTA | -0.136
ATGCGGGC | 0.0547
ACATCAGT | -0.0144
CAAGAAAC | 0.118
ACATTTCG | -0.0901
GTCCTGCA | -0.257
ATGGTCCG | 0.116
CCCCCCGA | -0.373

Sequence | PBM E-score
CGTACAAC | 0.176
ATGCACGC | 0.164
ACCATATA | 0.2
GGGGTGCA | -0.214
CGACTGCG | -0.098
CGGATAAG | 0.11
AATCTCGA | 0.0854
CGTGGCCC | -0.112
GAAACTCA | 0.0096
GCAATCCA | 0.0301
AAGAGCGA | -0.231
GTCATGAC | -0.0708
ACCAAATG | 0.00152
CGAAACAA | 0.144
ACCCTAGT | -0.113
GCAACAGC | 0.0755
CGGGAGTA | -0.0338
CGTCGCTC | -0.0769
AATTTGAT | 0.0908
ACCGCTCA | 0.0634
GGGCCCAC | -0.1
ATTTCGAC | 0.0292
TATCGGCA | 0.177
CCCCAATC | -0.182
TTCAGCAA | -0.154

Sequence | PBM E-score
ACAACCGC | 0.15
ACTCGGAA | -0.0391
ATGTGATG | -0.123
CAAGAGAC | -0.124
ATCGCTGA | -0.0887
ACATAGAT | 0.164
CCCCTTTC | -0.253
CCCCACAC | -0.136
TCACCGGA | -0.0974
GGAGAAAC | -0.0635
TCGGCCGA | 0.135
ACAGCTGT | -0.107
TAGCGAAA | 0.0053
TAGCTACA | -0.0531
ATCAAAGC | -0.0114
GAGACGCC | 0.263
GTAACTCA | -0.0768
AGACACGC | -0.0342
AATGGTAT | 0.0569
CCTCCTCA | -0.213
AACTGAGT | -0.0894
TCCAGACA | -0.0334
GACTTGTA | -0.138
AGCCCAGG | -0.387
ACCCATAC | -0.0919

Sequence | PBM E-score
ACTGCCCT | -0.0286
AAAAAGGC | 0.249
AAAGTGCA | 0.0017
CTACCTCC | -0.247
AAGGAGGG | -0.106
CAAACGGA | 0.236
ACACTGCG | -0.00317
GAGCCTCA | 0.214
GGTTGCAC | -0.154
TAGTCACA | 0.0308
CCCGTATC | 0.0159
CTAAGGAG | -0.24
GCCGGAAA | -0.0749
CCCCCGAA | -0.215
GATAGGGC | 0.0849
GCGATTTA | 0.188
AGCTGGCC | -0.105
AAAGGAAT | -0.00184
AGCCACTG | -0.0303
CATCCTAC | -0.016
GAATCTAA | 0.0299
AACACAGA | 0.00844
GGTGGTTA | 0.00324
CAGTAGAC | -0.0592
GAATTAAC | 0.0369

Sequence | PBM E-score
CTGGTTGC | -0.0153
CCGTTGTC | 0.186
AAAATTGG | -0.0667
GGGCTCGA | -0.145
ACGGCTAT | 0.349
GCTAAAGA | 0.0376
TCTGATAA | 0.0748
TATCCAAA | 0.0906
GGTAAAAA | 0.236
ACTGTCGC | -0.0226
AAGGACAC | 0.0891
CAATACTC | 0.0516
ATGAGCTC | -0.215
CGATGGGC | 0.011
CTAGAAAA | -0.0127
CTCTGTTC | -0.188
CACGCGGC | 0.459
AAGGTGAC | -0.219
AAAGATTC | 0.16
CTAACATA | 0.0934
GTCGCAAC | -0.0752
GGATAATA | 0.135
GTGCCTCA | 0.365
GGTGGAAA | -0.209
GGCTTCGA | 0.175

Sequence | PBM E-score
CACAAAGA | 0.142
ACGTAGAT | -0.0617
AGGACCAC | -0.26
GATTCCAC | 0.151
GGCGGGAC | -0.153
ACCTCGTC | -0.169
CGCGCCAG | 0.117
GTCCTTTA | -0.123
CTCCATAC | 0.0182
ACACTAGG | -0.111
GACGCTTA | -0.26
GCGCGTGA | 0.173
AAAACCAC | 0.0589
GGGTACAC | -0.00828
CCTCTCTA | -0.212
CTCTTGTA | -0.0716
GGCACGGA | 0.376
AGTCGTAA | -0.00672
GCCACGGC | 0.469
GGGAGCAA | -0.333
GCTCCAGC | -0.0515
CCCAAGCA | 0.0872
CATACAGC | -0.249
GAAGCTCC | -0.0424
GAAAAACA | -0.0335

Sequence | PBM E-score
CGGGAAGC | -0.066
GGAACTAC | -0.0352
ACCTCAAA | -0.0168
CCCTGGCA | -0.196
TAGGAGGA | -0.113
CACCCGCC | 0.0898
ATAGTATG | -0.0217
ATAACCTC | 0.0784
CAGTGTAG | 0.0536
ACTTACGA | 0.195
AGGGTGGA | -0.18
GACGAGTA | -0.0493
AGAGTTAT | -0.187
GACACAGC | -0.0567
CCCCCGCC | -0.262
GTGCCCAC | -0.00488
CCAAGTAA | 0.18
CTTTTAGA | 0.0884
AACACCCC | -0.129
AAACCGGA | 0.019
AACCTTTA | -0.0416
CCGTCCTC | -0.0869
